# In PubChem BioAssay AID588342 (National Center for Advancing Translational Sciences (NCATS), 2011):
# Among all 360,000 compounds or so, about 25,000 (6.9%) were called active. Inconclusive means that the source gave no clear call. Such entries were picked first, then a sample of the others. Calls follow the shape of the dose curve; as a rule, active = well fitted inhibition curve with a large enough effect; inconclusive = small, poorly fitted or top-dose-only effect; inactive = flat fitted curve, though single readings scatter. A potency beside an inconclusive call is a rough fit, not a confirmed value.
# Target: Luciferin 4-monooxygenase (Photinus pyralis) (UniProt P08659)
# Sequence of UniProt P08659 (P08659 whole entry, looked up): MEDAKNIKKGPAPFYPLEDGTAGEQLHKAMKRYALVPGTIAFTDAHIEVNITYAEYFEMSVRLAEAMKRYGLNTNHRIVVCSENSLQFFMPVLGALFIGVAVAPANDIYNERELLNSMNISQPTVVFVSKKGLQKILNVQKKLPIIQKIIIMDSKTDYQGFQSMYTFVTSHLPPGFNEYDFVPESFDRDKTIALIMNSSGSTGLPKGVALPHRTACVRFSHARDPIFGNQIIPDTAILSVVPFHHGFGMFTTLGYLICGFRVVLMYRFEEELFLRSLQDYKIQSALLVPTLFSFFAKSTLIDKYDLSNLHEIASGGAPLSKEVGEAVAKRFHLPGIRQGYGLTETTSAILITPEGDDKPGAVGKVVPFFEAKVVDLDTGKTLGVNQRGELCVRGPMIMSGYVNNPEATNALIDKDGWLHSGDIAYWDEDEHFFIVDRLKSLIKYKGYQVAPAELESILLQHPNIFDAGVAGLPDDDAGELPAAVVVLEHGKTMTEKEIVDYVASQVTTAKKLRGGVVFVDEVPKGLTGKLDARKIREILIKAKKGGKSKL
# Test: qHTS profiling assay for firefly luciferase inhibitor/activator using purifed enzyme and Km concentrations of substrates (counterscreen for miR-21 project); also: nearly all actives have a fitted effect of over 55% in size;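 as to activity change, negative = inhibition: plate controls were vehicle for no effect and reference inhibitor for full effect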
# Details: purified FLuc, luminescence inhibition; activity change, negative = inhibition: at 57.5 µM (top of the series)
# Method in brief: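 Purified P. pyralis luciferase (10nM final) with 10uM D-luciferin and 10uM ATP (Km levels) in 50mM Tris acetate pH 7.5, 10mM Mg acetate, 0.01% Tween-20, 0.05% BSA; qHTS 6-point titration, ~60 µM downward; luminescence read.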
# Potency is read from the fitted curve at half-maximal effect; tags tell the direction and shape of the fitted curve.
SMILES,Potency,"activity change, negative = inhibition"
Cc1ccc(NC(=O)C2OCCc3ccccc32)cc1 (stereo not drawn),"inconclusive: 23.9 µM [inhibitor, partial curve]",
CN(C(=O)CSc1ncnc2sc(-c3ccccc3)cc12)C1CCS(=O)(=O)C1 (stereo not drawn),active: 16.9 µM,
COc1ccc2nc(SC(C)C(=O)NCC(=O)Nc3ccc(F)c(F)c3F)[nH]c2c1 (stereo not drawn),"inconclusive: 19 µM [inhibitor, partial curve]",
Cc1cc(C)nc(NC(=O)/C=C/c2ccccc2Cl)n1,"inconclusive: 26.9 µM [inhibitor, single point]",
CCCc1nc2oc3ccccc3c(=O)c2c(=O)n1-c1ccccc1,,inactive: -9.14%
O=C(Nc1ccc(Br)cc1)c1cccc(S(=O)(=O)Nc2cnc3ccccc3c2)c1,"inconclusive: 37.9 µM [inhibitor, single point]",
Cc1cc(=O)oc2cc(OCC3CC(c4ccc(N(C)C)cc4)=NO3)ccc12 (stereo not drawn),"inconclusive: 6.01 µM [inhibitor, partial curve]",
COC(=O)Nc1sc2c(c1C(N)=O)CCCCCC2,"inconclusive: 30.1 µM [inhibitor, partial curve, poor fit]",
COc1ccccc1C(=O)Nc1nnc(SCC(=O)NCc2ccco2)s1,active: 3.38 µM,
CC(=O)Nc1ncc(Cc2cccc(Cl)c2)s1,,inactive: 3.36%
CCOC(=O)c1cccc(NC(=O)C(C)n2c(C)c3cnn(-c4ccccc4)c(=O)c3c2C)c1 (stereo not drawn),,inactive: -13.2%
CC(=O)c1sc(NC(=O)COc2ccc(Cl)cc2C)nc1C,"inconclusive: 23.9 µM [inhibitor, partial curve, poor fit]",
Clc1nssc1=Nc1ccc(Br)cc1,active: 23.9 µM,
O=C(Nc1cc(N2CCCCC2)ncn1)c1ccccc1,"inconclusive: 26.9 µM [inhibitor, single point]",
CSc1ccccc1OCc1cc(C(=O)NCCc2nc(C)cc(C)n2)no1,"inconclusive: 26.9 µM [inhibitor, single point]",
CC(C)(C)C(=O)OC/C(N)=N/OC(=O)c1ccc(Cl)cc1,"inconclusive: 30.1 µM [inhibitor, single point]",
CCOC(=O)c1nnc2cc(-c3ccccc3)nn2c1C,"inconclusive: 21.3 µM [inhibitor, partial curve, poor fit]",
COc1ccc(C2=NOC(Cn3nc(-c4ccccc4C)cc3C(=O)O)C2)cc1 (stereo not drawn),"inconclusive: 7.57 µM [inhibitor, single point]",
COc1ccc(NC(=O)c2cn(-c3ccccc3)nc2-c2ccc(C)cc2)cc1,"inconclusive: 7.57 µM [inhibitor, full curve]",
NS(=O)(=O)c1cc(C(=O)NCCc2ccccn2)ccc1Cl,,inactive: 4.94%
O=C(NCCCc1ccccc1)c1cc(COc2ccc(F)cc2Cl)on1,"inconclusive: 37.9 µM [inhibitor, partial curve, poor fit]",
O=C(NNC(=O)c1cc(-c2ccccc2)nc2ccccc12)c1csc(N2CCOCC2)n1,"inconclusive: 23.9 µM [inhibitor, single point]",
COc1ccc(C(=O)CN2C(=O)N(c3ccc(C(C)=O)cc3)S(=O)(=O)c3ccccc32)cc1,,inactive: -6.47%

SMILES,Potency,"activity change, negative = inhibition"
CCOC(=O)N1CCc2c(sc3c2c(=O)n(CCc2ccccc2)c(=O)n3Cc2ccc(F)cc2)C1,,inactive: -4.26%
COC(=O)c1cc(-c2ccc(Cl)cc2)n[nH]1,"inconclusive: 23.9 µM [inhibitor, partial curve]",
COc1ccc(S(=O)(=O)N2CCC(n3c(C(F)(F)F)nc4cccnc43)CC2)cc1OC,,inactive: -8.96%
COCc1ccc(CN2CCCCC2C(=O)Nc2ccc(Oc3ccccc3)nc2)o1 (stereo not drawn),,inactive: 0.622%
N/C(=N\OC(=O)c1ccco1)c1cccc(Br)c1,active: 6.75 µM,
Cc1nc2ccc(S(=O)(=O)N(C)CC(=O)Nc3ccc(Br)c(C)c3)cc2s1,,inactive: -17.8%
O=C1N=C(N2CCCCC2)SC1=C1CCCC1,"inconclusive: 23.9 µM [inhibitor, partial curve, poor fit]",
COc1ccccc1NC(=O)c1c(O)c2ccccc2[nH]c1=O,"inconclusive: 2.39 µM [inhibitor, partial curve, poor fit]",
CCSc1nnc(NS(=O)(=O)c2ccc(OC)cc2)s1,"inconclusive: 16.9 µM [inhibitor, partial curve, poor fit]",
Cc1cc(C)c(S(=O)(=O)N2CCN(CCN3C(=O)c4cccc5cccc(c45)C3=O)CC2)cc1[N+](=O)[O-],,inactive: -0.839%
COc1ccc2nc(C)cc(Sc3nc4ccccc4s3)c2c1,"inconclusive: 30.1 µM [inhibitor, partial curve, poor fit]",
Cc1ccc(C(=O)Nc2ccc(O)c(C(=O)O)c2)o1,"inconclusive: 37.9 µM [inhibitor, single point]",
CC(C)(C)c1ccc(Oc2ccc(NC(=O)c3ccco3)cn2)cc1,"inconclusive: 26.9 µM [inhibitor, single point]",
CCOc1ccc2nc(N3CCC(C(=O)N4CCN(C(=O)c5ccco5)CC4)CC3)sc2c1,active: 13.5 µM,
O=C(COC(=O)c1ccccc1F)c1ccc(-n2nncc2-c2ccco2)cc1,active: 12 µM,
Cc1ccc(-n2cc(CN(C)Cc3ncc[nH]3)c(-c3cccc(C)c3)n2)cc1,"inconclusive: 37.9 µM [inhibitor, partial curve, poor fit]",
Oc1ccc(/C=N/N(Cc2ccccc2)c2ccccc2)c(O)c1O,"inconclusive: 13.5 µM [inhibitor, partial curve]",
Nc1cc(-c2ccc(Br)cc2)nc2cc(-c3ccccc3)nn12,"inconclusive: 23.9 µM [inhibitor, single point]",
COc1ccc(/C=N/NC(=O)c2ccccc2O)cc1Cn1cc(Cl)cn1,"inconclusive: 26.9 µM [inhibitor, partial curve, poor fit]",
Cc1c(/C=N\NC(=O)c2csc3ccccc23)cnn1C,"inconclusive: 21.3 µM [inhibitor, partial curve]",
O=C(NCc1cccs1)c1nc2c(nnn2Cc2ccccc2Cl)c(=O)[nH]1,,inactive: -17.7%
CCOc1ccccc1-n1nnc(-c2nc(-c3ccccc3)no2)c1N,"inconclusive: 3.38 µM [inhibitor, partial curve, poor fit]",
CC1=NN(c2ccc(F)cc2)C(=O)C1C(c1cccc(O)c1)c1c(C)[nH]n(-c2ccc(F)cc2)c1=O (stereo not drawn),"inconclusive: 37.9 µM [inhibitor, partial curve, poor fit]",

SMILES,Potency,"activity change, negative = inhibition"
Cc1ccc(-c2onc3ccc(Br)cc23)cc1,"inconclusive: 30.1 µM [inhibitor, single point]",
CCOc1ccc(C2=NC(c3cccs3)=Nc3ccc(C(C)C)cc3N2)cc1,"inconclusive: 16.9 µM [inhibitor, partial curve, poor fit]",
COc1cc(/C=N/Nc2nc(Nc3ccc(C)cc3)nc(-n3nc(C)cc3C)n2)cc(OC)c1OC,"inconclusive: 9.53 µM [inhibitor, partial curve]",
COc1ccc2c(c1OC)C(=O)N(c1ncn[nH]1)C2,,inactive: 1.33%
Cc1ccc(C)c(Nc2nc(-c3cccnc3)cs2)c1,"inconclusive: 19 µM [inhibitor, single point]",
Cc1ccc(-c2ccc(SCC(=O)N3CCc4ccccc43)nn2)cc1,"inconclusive: 1.69 µM [inhibitor, full curve]",
CC1CN(S(=O)(=O)c2ccc(C(=O)NCCCn3ccnc3)cc2)CC(C)O1 (stereo not drawn),,inactive: 1.15%
CSc1cccc(NC(=O)COc2ccccc2C)c1,active: 15.1 µM,
COc1cc(OC)cc(C(=O)NCC(=O)NCCN2C(=O)S/C(=C\c3ccccc3Cl)C2=O)c1,"inconclusive: 26.9 µM [inhibitor, partial curve, poor fit]",
CN(Cc1ccccc1)S(=O)(=O)c1ccc(F)c(C(=O)Nc2cccc(Cl)c2Cl)c1,,inactive: -12.7%
C=CCN=C1CCCc2c1[nH]c1ccc(C)cc21,"inconclusive: 23.9 µM [inhibitor, partial curve, poor fit]",
CCN(CC)c1ccc(NC(=O)c2cnn3c(C(F)F)cc(-c4ccccc4)nc23)cc1,"inconclusive: 3.01 µM [inhibitor, partial curve, poor fit]",
COc1ccc(Cl)cc1NC(=O)C1CCN(c2ncnc3c2nc2n3CCCCC2)CC1,"inconclusive: 37.9 µM [inhibitor, partial curve, poor fit]",
Cc1cc(C)nc(NC(=O)c2ccc(C)c(C)c2)n1,"inconclusive: 37.9 µM [inhibitor, partial curve, poor fit]",
CCCn1c2c(c(=N)c3c1CCC3)CCC2,,inactive: -1.7%
COc1cc(/C=N/NC(=O)CC2(C)OCCCO2)ccc1OCc1ccccc1,"inconclusive: 33.8 µM [inhibitor, single point]",
COCc1ccc(-c2c(-c3cc(OC)cc(OC)c3)oc(=O)c3cc(OC)c(OC)cc23)cc1,"inconclusive: 6.75 µM [inhibitor, single point]",
O=C(Cc1csc(-c2ccccc2)n1)NCc1cccs1,"inconclusive: 30.1 µM [inhibitor, partial curve, poor fit]",
O=C(Nc1ccc2c(c1)OCCO2)C(=S)NCc1ccccc1,active: 6.01 µM,
CCCCOC(=O)c1ccc(NC(=O)COC(=O)CSc2nc(C)cc(C)n2)cc1,"inconclusive: 19 µM [inhibitor, partial curve, poor fit]",
Cc1ccc2nc(SCC(=O)Nc3ccc(F)c([N+](=O)[O-])c3)[nH]c2c1,"inconclusive: 37.9 µM [inhibitor, single point]",
CNc1nc(C)nc(-c2ccccc2O)n1,"inconclusive: 30.1 µM [inhibitor, partial curve, poor fit]",
